# Measured values taken from PMC12136788.
# The other results are listed elsewhere or left out.
# B1: chr8:26196428:26196429:+_ENSG00000221914_ENST00000315985|hu_hu|FALSE|FALSE (ssRNA)
# RNA: GGGAGUUCUACAGUCCGACGAUCUUUGUUCUCCUGCUCCUGUUGAAAGAUGACAACUCUACCACCUUUAUCUCCUGUUGCUAGUAAUUCUCCAGAAUGAUUAAAUUCUACUGUAGAAAUUAUAUCUGCUUCUGCUACAUCAUCCAACAGAGGAUUGAGCAUCA
# B2: chr1:78444685:78444686:-_ENSG00000162613_ENST00000370768|hu_hu|FALSE|FALSE (ssRNA)
# RNA: GGGAGUUCUACAGUCCGACGAUCACCAGCUGAGCCAGAAGAGGGGGGAGGCACUGUUGAAUAGUCUGCCAUGGUUGCACUAUAAGAGCCGCUGCCGCCUGUUCAGAGACUUCCUCUCAGCUAACAGCUAAGAAAGAAAGAAAACAACAGAGGAUUGAGCAUCA
# B3: chr16:94664741:94664742:+_ENSMUSG00000040785_ENSMUST00000117648|mus_hu|mus_mus_mus_hu_False|68_98 (ssRNA)
# RNA: GGGAGUUCUACAGUCCGACGAUCUGGUACUGAUCUUUGCAUUGGAUAUUCAGGAGAAAGGCUGGCCAAAGGUGUGUAUAUGCUGGUGUACUGGGGCAAACCUGGUAACACGUUUAUGUAUGCUGGCGGUGUCUGGGUGAUAUCCAACAGAGGAUUGAGCAUCA
# B4: chr1:244855233:244855234:+_ENSG00000121644_ENST00000302550|hu_mus|hu_hu_hu_mus_True|58_78 (ssRNA)
# RNA: GGGAGUUCUACAGUCCGACGAUCCAUCAGAUGGUAGGCGUUGCCCUUAUACUCUUUUCCCAGUUCUUCUACAAUUUUUUCUAUAUCAUCUUCUAGAAAGUCCGUACUUCCUAGAACAACAGCUUCUUUAAAUUUAAAUGUUUCCAACAGAGGAUUGAGCAUCA
# B5: chr16:68260615:68260616:+_ENSG00000072736_ENST00000346183|hu_mus|FALSE|FALSE (ssRNA)
# RNA: GGGAGUUCUACAGUCCGACGAUCUCUGAGAUAGAGCCUGCUGCAUUCACACUCAAAGCACCCAUCAUAUAAAAGUAUCCUAUUUAAAUAUAUAUAUAUAUAUAUAUAUAUAUAUAUAAAAGCAAAGCUCGUUUCCCACAGCUGCAACAGAGGAUUGAGCAUCA
# B6: chr2:47387409:47387410:-_ENSG00000143933_ENST00000272298|hu_mus|FALSE|FALSE (ssRNA)
# RNA: GGGAGUUCUACAGUCCGACGAUCCAACUUGGAAUGGAUUUGAGGCAAGUUGUGCCAUGAGCAGGUUUUCUUUAAGUGGCUAAACAAAGUUUAAAAAGCAAGUAACAAUAAAAGAAAAUGUUCCUGGUACAAUACCAGCAGUACCAACAGAGGAUUGAGCAUCA
# Target: T1, UNK ZnF1-3 (human, UniProt Q9C0B0 31-174)
# T1 sequence: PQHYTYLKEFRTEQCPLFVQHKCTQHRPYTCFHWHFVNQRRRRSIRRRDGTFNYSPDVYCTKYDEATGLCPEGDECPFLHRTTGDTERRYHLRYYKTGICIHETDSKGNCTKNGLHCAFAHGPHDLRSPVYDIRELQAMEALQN
# Assay: nsRBNS (natural sequence RNA bind-n-seq); RBNS binding buffer (assumed for nsRBNS): 25 mM Tris pH 7.5, 150 mM KCl, 3 mM MgCl2, 0.01% Triton X-100, 500 ug/ml BSA, 20 U/ml SUPERase-In, 4 C; UNK is unkempt and MSI1 is Musashi-1; names of the RNAs are library labels; protein concentration not given here; high values mean tight binding
row,Binder,binding signal
1,B1,0.983 enrichment R
2,B2,1.38 enrichment R
3,B3,1 enrichment R
4,B4,1.41 enrichment R
5,B5,2.29 enrichment R
6,B6,0.884 enrichment R
